# From patent US20180327494A1 (SUZHOU ALPHAMAB, published 2018)
# Numbering of substitutions follows the chain as printed.
# T1: human B7H3-EGFP on HEK293 cells (human, UniProt Q5ZPR3 29-534)
# T1 construct: whole, on cells; not shown: EGFP protein fused to the C-terminus
# T1 sequence (looked up): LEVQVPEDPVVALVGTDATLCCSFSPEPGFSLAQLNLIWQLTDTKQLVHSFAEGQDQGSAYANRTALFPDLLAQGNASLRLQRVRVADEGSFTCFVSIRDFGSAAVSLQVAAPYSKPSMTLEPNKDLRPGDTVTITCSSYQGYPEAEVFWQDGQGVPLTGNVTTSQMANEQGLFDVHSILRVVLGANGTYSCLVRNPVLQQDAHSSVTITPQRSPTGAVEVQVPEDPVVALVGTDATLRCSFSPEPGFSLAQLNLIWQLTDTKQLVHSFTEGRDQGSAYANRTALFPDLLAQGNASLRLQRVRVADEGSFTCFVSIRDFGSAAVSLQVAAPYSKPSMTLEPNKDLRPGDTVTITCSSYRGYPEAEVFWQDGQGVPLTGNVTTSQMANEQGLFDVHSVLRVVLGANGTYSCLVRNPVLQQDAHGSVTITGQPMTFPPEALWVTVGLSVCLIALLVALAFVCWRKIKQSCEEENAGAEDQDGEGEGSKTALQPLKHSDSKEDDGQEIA
# T2: human PDL2-EGFP on HEK293 cells (human, UniProt Q9BQ51 20-273)
# T2 construct: whole, on cells; not shown: EGFP protein fused to the C-terminus
# T2 sequence (looked up): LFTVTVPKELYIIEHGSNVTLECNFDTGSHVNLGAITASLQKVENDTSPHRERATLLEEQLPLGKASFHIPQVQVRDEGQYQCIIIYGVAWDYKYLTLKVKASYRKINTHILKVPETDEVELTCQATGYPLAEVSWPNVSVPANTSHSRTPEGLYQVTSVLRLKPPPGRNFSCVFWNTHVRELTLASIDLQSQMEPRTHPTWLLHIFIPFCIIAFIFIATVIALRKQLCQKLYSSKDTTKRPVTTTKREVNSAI
# T3: B7H4 (human, UniProt Q7Z7D3)
# T3 construct: full length on the cell membrane, C-terminal EGFP fusion; Named only by the column head on the sheet; also called human B7H4-EGFP on HEK293 cells
# T3 sequence (membrane protein on transfected HEK293 cells, looked up): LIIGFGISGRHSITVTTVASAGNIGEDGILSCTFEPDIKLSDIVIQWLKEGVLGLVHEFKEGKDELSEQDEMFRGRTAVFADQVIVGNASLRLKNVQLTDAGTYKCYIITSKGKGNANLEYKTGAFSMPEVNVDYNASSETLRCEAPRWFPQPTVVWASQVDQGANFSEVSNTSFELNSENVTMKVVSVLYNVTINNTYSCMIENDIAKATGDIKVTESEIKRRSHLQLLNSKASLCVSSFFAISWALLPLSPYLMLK
# B1: hu56V1-Fcm1 (Fc fusion)
# chain: QVQLVESGGGLVQPGGSLRLSCAASGKMSSRRCMAWFRQAPGKERERVAKLLTTSGSTYLADSVKGRFTISRDNSKNTVYLQMNSLRAEDTAVYYCAADSFEDPTCTLVTSSGAFQYWGQGTLVTVSS[sequence of human IgG1 Fc with C220S D265A P331G (EU numbers) not given]
# notes: humanized VHH Hu56V1 fused to mutant human IgG1 Fc (Fc-m1); biotinylated in the FcRn assay
# B2: hu56V2-Fcm1 (Fc fusion)
# chain: B1 chain with K27F, M28T, S29F
# notes: humanized VHH Hu56V2 fused to mutant human IgG1 Fc (Fc-m1); biotinylated in the FcRn assay
# B3: hu56V2-Fc (Fc fusion)
# chain: QVQLVESGGGLVQPGGSLRLSCAASGFTFSRRCMAWFRQAPGKERERVAKLLTTSGSTYLADSVKGRFTISRDNSKNTVYLQMNSLRAEDTAVYYCAADSFEDPTCTLVTSSGAFQYWGQGTLVTVSS[sequence of human IgG1 Fc not given]
# notes: humanized VHH Hu56V2 fused to human IgG1 Fc; biotinylated in the FcRn assay; also called PDL1-hu56V2-Fc; KN035
# Columns and labels:
# [1] = molecular target: Human FcRn protein (RnD Systems Cat. No. 8639-FC) (human, UniProt P55899 part only; P61769 part only); test: BLI, Octet K2, biotinylated Fc fusion on SA biosensor, FcRn 12.5-200 nM
# UniProt P55899, sequence (P55899 24-297 limits assumed, chain 1 of 2): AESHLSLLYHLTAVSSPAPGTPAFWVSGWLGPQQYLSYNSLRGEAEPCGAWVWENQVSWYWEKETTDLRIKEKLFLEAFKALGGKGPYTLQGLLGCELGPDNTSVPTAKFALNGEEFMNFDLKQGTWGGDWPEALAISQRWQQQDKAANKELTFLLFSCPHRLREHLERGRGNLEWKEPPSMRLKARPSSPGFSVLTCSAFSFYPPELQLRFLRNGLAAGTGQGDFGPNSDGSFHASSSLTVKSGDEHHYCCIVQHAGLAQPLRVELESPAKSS
# UniProt P55899, sequence (P61769 21-119 limits assumed, chain 2 of 2, further chain): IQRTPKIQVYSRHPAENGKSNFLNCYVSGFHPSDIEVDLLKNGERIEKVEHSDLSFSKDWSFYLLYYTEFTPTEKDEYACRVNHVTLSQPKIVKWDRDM
# [2] = molecular target: T4, human PDL1 protein on the cell membrane (human, UniProt Q9NZQ7); test: flow cytometry competition: 293 cells expressing PDL1 on the membrane, PD1-muFc 2 µg/ml (blocked ligand), PE goat anti-mouse antibody, MFI, four-parameter fit; the sheet labels it EC50, the text calls it IC50; unit from the axis
# T4 construct: whole, on cells; also used here for Raji-PDL1 cells and for native PDL1 on lung cancer tissue sections; also called Raji-PDL1
# T4 sequence (Q9NZQ7 19-290): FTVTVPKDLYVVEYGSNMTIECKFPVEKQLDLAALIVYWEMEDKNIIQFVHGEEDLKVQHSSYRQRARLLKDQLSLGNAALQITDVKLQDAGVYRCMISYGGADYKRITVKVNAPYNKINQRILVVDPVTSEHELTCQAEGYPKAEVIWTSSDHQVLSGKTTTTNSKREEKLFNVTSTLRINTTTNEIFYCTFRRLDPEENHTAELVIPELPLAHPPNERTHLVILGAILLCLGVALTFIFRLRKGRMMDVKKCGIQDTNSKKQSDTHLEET
# biotinylated PDL1-muFc = molecular target: T5, biotinylated PDL1-muFc (human, biotinylated (sites not given)); test: flow cytometry competition: Jurkat-PD1 cells incubated with biotinylated PDL1-muFc 30 µg/ml, then dilution series of the Fc fusion protein, Streptavidin PE, MFI; the blocked partner is human PD1 on the Jurkat cells; the sheet labels it EC50, the text calls it IC50; unit from the axis
# biotinylated PDL1-muFc, sequence (chain, as listed by the source limits assumed): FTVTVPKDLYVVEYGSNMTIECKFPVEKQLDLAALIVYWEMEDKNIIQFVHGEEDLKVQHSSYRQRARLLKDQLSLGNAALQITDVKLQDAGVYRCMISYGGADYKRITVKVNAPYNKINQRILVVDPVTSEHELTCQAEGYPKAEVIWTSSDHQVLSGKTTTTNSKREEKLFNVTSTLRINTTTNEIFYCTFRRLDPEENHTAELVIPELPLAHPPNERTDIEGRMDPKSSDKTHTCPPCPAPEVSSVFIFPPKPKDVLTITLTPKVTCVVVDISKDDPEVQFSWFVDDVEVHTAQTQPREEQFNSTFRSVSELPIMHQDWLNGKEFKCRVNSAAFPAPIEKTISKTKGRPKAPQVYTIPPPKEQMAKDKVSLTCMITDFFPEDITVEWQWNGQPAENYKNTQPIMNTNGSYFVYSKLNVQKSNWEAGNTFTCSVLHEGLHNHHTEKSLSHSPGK
# T5 construct: PDL1 fused to a mouse Fc; also called human PDL1-muFc; soluble PDL1-muFc protein
# [3] = molecular target: T1, human B7H3-EGFP on HEK293 cells; test: flow cytometry dot plots: 293 cells transfected with B7H3-EGFP, hu56V2-Fc, anti-hIg-PE
# [4] = molecular target: T2, human PDL2-EGFP on HEK293 cells; test: flow cytometry dot plots: 293 cells transfected with PDL2-EGFP, hu56V2-Fc, anti-hIg-PE
# B7H4 = molecular target: T3, B7H4; test: flow cytometry dot plots: 293 cells transfected with a B7 family protein-EGFP (B7H4 on the sheet), hu56V2-Fc, anti-hIg-PE
Binder,Kd [1] [nM],koff [1] [s⁻¹],kon [1] [M⁻¹ s⁻¹],IC50 [2] [µg/mL],IC50 (biotinylated PDL1-muFc) [µg/mL],binding result [3],binding result [4],binding result (B7H4)
B1,510,0.0963,189000,0.249,13.4,–,–,–
B2,510,0.119,234000,–,–,–,–,–
B3,–,–,–,–,–,no binding,no binding,no binding
